Results as given in the supplement of paper PMC3334620.
Whole data set: some 33,000 sequences, median “E-score (-0.5 to 0.5)” near -0.036, cut for the highest 2% near 0.37. The list shows a part of the results.

biological target: T1, Yer064c (UniProt P40041); assay: PBM E-score (8-mer binding enrichment) (E-score (-0.5 to 0.5)); higher = stronger / more preferred TF binding; most listed sequences are background and not binding sites; conditions: protein concentration: 200 nM; construct: GST-full length
T1 sequence: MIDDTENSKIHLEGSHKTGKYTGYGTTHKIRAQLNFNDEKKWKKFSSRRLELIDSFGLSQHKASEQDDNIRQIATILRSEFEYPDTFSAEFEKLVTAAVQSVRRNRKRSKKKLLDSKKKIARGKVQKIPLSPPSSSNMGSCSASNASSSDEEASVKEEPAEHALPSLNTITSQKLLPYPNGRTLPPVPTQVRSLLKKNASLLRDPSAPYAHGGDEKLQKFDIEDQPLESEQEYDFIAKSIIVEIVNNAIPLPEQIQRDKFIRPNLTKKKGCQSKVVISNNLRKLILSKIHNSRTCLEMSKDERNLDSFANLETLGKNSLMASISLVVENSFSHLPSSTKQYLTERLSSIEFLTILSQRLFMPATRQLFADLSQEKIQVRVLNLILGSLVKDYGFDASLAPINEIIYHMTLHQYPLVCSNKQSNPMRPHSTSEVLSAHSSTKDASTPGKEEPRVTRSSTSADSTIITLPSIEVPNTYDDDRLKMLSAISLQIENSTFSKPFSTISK
Method in brief: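 Yeast transcription factors carrying a GST tag, as full-length proteins or DNA-binding domains, were produced by PURExpress in vitro transcription/translation. About 100-200 nM protein was applied to universal all-10-mer Agilent arrays, double-stranded by primer extension on fresh or once-stripped slides. Bound protein was detected with fluorescent anti-GST, and scans were normalised with masliner. The Universal PBM Analysis Suite gave each ungapped eight-base word, pooled with its reverse complement, an E-score, a modified Wilcoxon-Mann-Whitney statistic.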

Row | Sequence | PBM E-score
1 | GTCATAAA | 0.239
2 | ACGTCGCG | 0.00147
3 | GACGATCA | 0.0561
4 | AACATCGC | -0.25
5 | GCTTTGGA | -0.109
6 | CAACTCCA | -0.278
7 | AATTGGAT | 0.0801
8 | CTTATTCA | -0.0272
9 | TAATAAGA | 0.101
10 | ATTAAAAT | 0.143
11 | ATCCCTGG | -0.0925
12 | CGGGACTC | 0.266
13 | CGGAGTAA | 0.0591
14 | GACGTGGC | -0.181
15 | CGTCGAGA | 0.0495
16 | AATAACTA | 0.0495
17 | AGAAATAT | -0.0573
18 | AAAACATT | 0.0184
19 | CCATTAAG | 0.0188
20 | GCAATGAC | 0.322
21 | TCCCACAA | 0.095
22 | CGGTAGTC | 0.409
23 | GAAGTCTA | -0.011
24 | ACCAGGCG | -0.146
25 | ATGCAAGA | 0.139

Row | Sequence | PBM E-score
26 | AGGATAAT | 0.0639
27 | AGCATCGA | -0.157
28 | AACATCTT | -0.205
29 | TGTGCGAA | 0.0012
30 | CTGCCCGC | -0.00975
31 | GACCTTTA | -0.0143
32 | GCACGGGA | -0.145
33 | GAAGCGTA | -0.151
34 | CGGTTATA | -0.175
35 | AATCTATC | -0.0431
36 | AACTGGAT | -0.0845
37 | ACTGAGGC | -0.0486
38 | AATACTCC | 0.0962
39 | CAGTGCCC | -0.277
40 | CTTATCCC | -0.147
41 | GAACTAAC | -0.0243
42 | CGTCGGGC | -0.267
43 | CGATAACC | -0.146
44 | GCCTCTAA | -0.235
45 | CCTTTCCA | -0.169
46 | ATCCATCA | 0.129
47 | GGTCAGAC | 0.0361
48 | ATTTTGTC | -0.00252
49 | GGCGAGAC | 0.0649
50 | AAGTTATT | 0.072

Row | Sequence | PBM E-score
51 | CAGTCGAA | -0.0398
52 | GATCTGAA | 0.11
53 | ACGCTAAA | 0.0957
54 | GGCCATCA | -0.279
55 | ACCTTCAT | -0.206
56 | CCTAGGAA | -0.181
57 | ATAAAGTG | 0.0774
58 | AATGGAAT | -0.0403
59 | CCTTTACG | -0.104
60 | CTGAAGCC | 0.111
61 | GATGTCTA | 0.273
62 | CAGTACGC | -0.0802
63 | ATAGTTTC | 0.201
64 | CAATGTGG | -0.135
65 | ACTAGATA | 0.177
66 | CAGATGAC | 0.215
67 | AACGGCAT | -0.0999
68 | ACAACAGT | 0.131
69 | ACTCAAAC | 0.344
70 | GGGGGGTA | -0.148
71 | AACAATTG | 0.0879
72 | GACTTACC | 0.294
73 | CTCAGCGC | 0.00265
74 | GGCCCCCA | -0.402
75 | CTACTAGC | 0.089

Row | Sequence | PBM E-score
76 | ACGACCCC | -0.275
77 | GATGCTGA | -0.0582
78 | ACGGAAAG | -0.0796
79 | GACGCTAC | 0.0103
80 | ACTAACCT | 0.197
81 | TGTCACAA | 0.156
82 | CTTACCAA | -0.0253
83 | CTATACCC | -0.139
84 | GCCTGTCC | -0.279
85 | CCAACACG | -0.00911
86 | AATGAATA | 0.132
87 | GTACCGCA | -0.0756
88 | CGGACGAG | -0.0356
89 | ATCTCCGA | 0.0166
90 | TCTTCACA | 0.127
91 | CGCACAAC | -0.214
92 | ACTGAGTC | 0.477
93 | GTGATATA | -0.166
94 | CACCTAGC | -0.105
95 | ATGAAGCC | -0.12
96 | AGGAATTG | -0.103
97 | GGCCGCGA | -0.206
98 | CAGCTGAA | 0.0482
99 | CCGAGTAG | 0.0202
100 | ATCCCGGG | -0.189

Row | Sequence | PBM E-score
101 | AGTACCCA | 0.157
102 | TCCTTAAA | 0.171
103 | CTGCTCCC | -0.256
104 | AAAAGCTA | -0.128
105 | ATAAAGTA | 0.139
106 | CACCCTCA | -0.00422
107 | ACGCCCGG | 0.112
108 | GGGTTTTA | -0.26
109 | CTTTACTC | 0.107
110 | CGGGGCTA | -0.167
111 | AAGTCTTG | 0.205
112 | GGGCGCGA | -0.0578
113 | CTCCAAGC | -0.156
114 | AGAGGAAG | -0.12
115 | CATACATG | 0.0976
116 | ACTCGCAA | 0.218
117 | ATGTTACG | -0.102
118 | CAGCCTCC | -0.283
119 | CCCGCGGC | -0.182
120 | AAATCACG | 0.264
121 | CCCTCAGC | -0.191
122 | AGCCCCGG | -0.302
123 | GGCCTCAA | -0.19
124 | GATCAACA | 0.168
125 | CGTGAGAC | 0.137

Row | Sequence | PBM E-score
126 | CACGAGCA | -0.0331
127 | AAACCTGG | 0.0113
128 | ATCCGCGC | -0.0971
129 | TCCGCAGA | -0.102
130 | AATCTCGG | 0.00127
131 | TATTTAAA | 0.119
132 | GTAAGACA | -0.0654
133 | AGTTCCAA | 0.0291
134 | AATTGCAC | -0.147
135 | CGTACTGC | -0.092
136 | GGGACCGA | -0.0437
137 | GGTATTAC | -0.0144
138 | AAACAAGG | -0.0917
139 | AATACCCA | 0.128
140 | AAAGCGAA | -0.0893
141 | ATCCATTC | 0.0758
142 | CAGGGTTC | -0.0967
143 | CATTGGGG | -0.145
144 | AGTCTAGG | -0.0693
145 | AGGGGCAA | -0.279
146 | AGTGTTGA | 0.0634
147 | AAGTGATG | 0.0804
148 | GCACCGAA | 0.0443
149 | AATTCGAG | -0.0849
150 | ATCCTTGG | 0.0927

Row | Sequence | PBM E-score
151 | AGAAAAAA | 0.0323
152 | CCATTTAA | 0.182
153 | CACTCAGC | -0.0645
154 | AACTCGTC | 0.00343
155 | ACTTCTCG | -0.0591
156 | AAGACTGT | 0.254
157 | AAGTTGAG | 0.126
158 | GGATTCGA | -0.11
159 | ACGAAACC | -0.0418
160 | CAGGTCGA | 0.0262
161 | CGCGATGC | -0.21
162 | AGTTCCCA | -0.0103
163 | AGGGTCCG | -0.326
164 | ACAGGTGA | 0.168
165 | CATATCGG | -0.102
166 | CTTCTCCA | -0.193
167 | CAAATATA | -0.0548
168 | TGTGTCAA | 0.00966
169 | CAGGACGC | -0.261
170 | AGCGGTAG | 0.00737
171 | CAGGGGGC | -0.337
172 | GCCCGCGA | -0.0919
